Test results: the supplement of paper PMC3334620
Over roughly 33,000 sequences, “E-score (-0.5 to 0.5)” has its median near -0.012; the highest 2% begin near 0.27. Some of the results follow.

target: T1, Vhr1 (UniProt P40522); experiment: PBM E-score (8-mer binding enrichment) (E-score (-0.5 to 0.5)); higher = stronger / more preferred TF binding; most listed sequences are background and not binding sites; conditions: protein concentration: 200 nM; construct: GST-full length
T1 sequence: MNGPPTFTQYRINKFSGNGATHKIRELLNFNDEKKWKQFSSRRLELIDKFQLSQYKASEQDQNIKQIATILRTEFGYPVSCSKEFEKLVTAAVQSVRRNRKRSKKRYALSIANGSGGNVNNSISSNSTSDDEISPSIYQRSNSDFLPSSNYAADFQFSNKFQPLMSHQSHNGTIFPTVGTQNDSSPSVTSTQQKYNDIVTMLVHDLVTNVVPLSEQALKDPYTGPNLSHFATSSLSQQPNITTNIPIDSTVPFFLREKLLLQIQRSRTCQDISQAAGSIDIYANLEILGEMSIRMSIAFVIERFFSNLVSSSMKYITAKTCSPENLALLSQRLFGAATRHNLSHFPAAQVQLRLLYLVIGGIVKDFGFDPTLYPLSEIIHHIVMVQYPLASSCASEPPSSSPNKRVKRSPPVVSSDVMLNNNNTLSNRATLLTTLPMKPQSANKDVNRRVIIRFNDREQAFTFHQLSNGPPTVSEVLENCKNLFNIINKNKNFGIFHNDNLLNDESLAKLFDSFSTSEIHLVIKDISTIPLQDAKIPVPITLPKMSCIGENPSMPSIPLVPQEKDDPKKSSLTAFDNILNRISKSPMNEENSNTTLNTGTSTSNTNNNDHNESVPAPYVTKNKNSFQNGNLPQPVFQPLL
Protocol: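 Universal 'all 10-mer' protein binding microarrays (Agilent AMADID 015681) probed with GST-tagged S. cerevisiae TFs (full-length or DBD) made by in vitro transcription/translation (PURExpress), about 100-200 nM. Bound TF was detected with fluorescent anti-GST. Each ungapped 8-mer (which stands for itself and its reverse complement) is scored by the PBM enrichment score (E-score), a modified Wilcoxon-Mann-Whitney statistic from -0.5 to +0.5, computed with the Universal PBM Analysis Suite. Scale: above 0.35 generally sequence-specific binding.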

Sequence	PBM E-score
AAGAGGTG	-0.0148
GGTGACAA	0.0489
GCATCACC	-0.0259
TTCCTAAA	-0.276
AGGTGAGG	-0.053
CCCGGCAA	-0.0464
GCCCTGCC	-0.0229
AGAAGTCC	-0.316
CTGAACGC	-0.159
CAATACGC	-0.127
CCGGCCGG	0.282
TGATTCAA	0.326
CACATGGA	0.115
ATGAATAC	0.101
TCGCCCAA	-0.00865
CAACCGGG	-0.0769
TGTGATAA	0.164
AAGTGCAA	-0.135
ATGAGGAC	-0.13
GCCATCGC	0.0151
CGTTTGCC	-0.049
AGATAATG	0.0822
ATTATTAA	0.158
CACGCCGG	0.131
TGAAAAAA	-0.0776

Sequence	PBM E-score
ACAATCGA	-0.0819
ACGCGCGG	0.188
CTCATAGA	0.0485
TATACTGA	0.309
ACAAAGTG	0.129
ATATCGGG	-0.0508
AATGAAGT	-0.0303
TCAAATGA	-0.0694
GCATACAA	0.0493
AACGGGAA	-0.149
ACGTGTAG	-0.128
ACCACGTG	0.123
GCATCCCC	-0.204
GGACTCTA	-0.118
ACGGCGAG	0.17
TCCTAAGA	-0.182
ATATGATG	0.191
GTTGTAAA	-0.124
AGGGCAGC	-0.18
AAACATGG	0.0809
ATGCACAA	0.0872
ACCAGCGC	0.00898
GCTTGATA	-0.0152
GAATAAAA	-0.272
AGTCACCC	0.446

Sequence	PBM E-score
CGTCGGTA	-0.118
ACCTAAAA	-0.221
GGCGTTCA	-0.18
ACCCACTG	0.22
CAGTACCC	0.103
TCAGGACA	0.0678
CGCGTCTC	0.0173
CATCGCAC	0.0126
GACCGTTA	-0.144
GCGGTAGA	-0.0235
TATACAGA	0.117
CGCATACA	0.152
ACTCTTAT	0.113
CGAGTCGC	0.34
AAGCGCAT	-0.155
ACCAATTA	0.121
GACAACAC	0.0918
CCCCCCTC	-0.207
TATAGTAA	0.15
TAGTACGA	0.00355
TATTACCA	-0.0433
CTCCTAGC	-0.18
ACGAATAG	-0.137
CCAGTAGG	-0.105
ACTCTCCG	0.0109

Sequence	PBM E-score
TCCCGCAA	-0.0326
CGTGACGA	0.00499
ACACTACA	0.261
ACGGAGGC	-0.125
GGAGTTGA	-0.175
GATCACGC	0.193
GCGGGACC	0.024
GAGCTTTA	-0.188
TAGACGGA	-0.0853
AAGCTGCT	-0.0801
ACACGTAG	0.0491
CCTCGAGA	-0.00909
ACCTCACT	0.0543
ACACATAA	0.119
CCCCTTAA	-0.226
TCTCGGCA	-0.188
TCACGCGA	0.0392
AACGGGAG	0.147
GCACGCAC	-0.121
AGGGGAGA	-0.145
AGTGTACA	0.0323
TTTTAAAA	-0.281
GAGGCTTA	-0.247
CGCAGTCC	0.0797
CTTCCAAC	-0.164

Sequence	PBM E-score
GTGGCTTA	-0.111
CGGTAGGC	-0.223
CGTAGCAA	0.0632
CGGCGTTC	-0.0711
GCGGAATA	-0.0883
GCATGAAC	0.103
CAAGACGG	-0.0483
ACCGAATA	-0.00815
GTCCCGGA	-0.123
ACCATCGT	-0.137
CAGATGGG	-0.0247
CACCATGC	0.0528
GAGTTTTA	-0.112
AGCACAAA	0.031
CCTAGTAG	-0.141
ATTGATAA	0.0392
CCCGACGA	0.144
CCTGGTAA	-0.194
GCGTGGAA	-0.15
GTACAAAC	0.0927
GGCATGTA	-0.057
TATGGTAA	0.179
ATAATTAG	0.00826
ACCATGTG	0.295
TCCCATCA	-0.086

Sequence	PBM E-score
AAAGCGTC	-0.226
AGCCCGGC	0.0911
AAAGTACT	-0.109
CCCACAGC	0.0709
GTAAGAAA	-0.181
CATCCACC	0.0845
CCAGACCG	0.123
CATAACCA	0.0831
ATTAGTGA	0.255
AACGAGTC	0.278
AGCATTGG	-0.0405
AGCCTCGC	-0.138
GTCAAGTA	-0.162
AAAGAGTG	-0.0318
CACTGCGC	0.0598
AGTAAAAG	0.0753
GTCCACTA	-0.0384
CGAAAGTC	-0.131
CAAAAGTG	-0.0415
CGCTGTCC	-0.17
GAGACTCC	0.286
AGGAGAGA	-0.104
TGGAAGAA	-0.02
ATCATGCC	0.0697
ACTCTACC	0.0388

Sequence	PBM E-score
GGTGGTAA	0.0621
AACCCAGG	0.044
AGTCGGTA	-0.0272
ATTGCGAA	-0.0969
AAAATCTA	-0.175
AAACTCTA	-0.122
CAGGTTAA	-0.0304
CTATGAGA	-0.0669
AGTGCTGC	-0.0215
CAGTTATC	-0.0919
AGCGGCCA	-0.173
CGATCCCC	-0.00048
AAAATAGA	-0.0962
ATTCAGTC	0.105
AAATCACA	0.0215
GATGCTAC	0.021
CCCGTGCC	-0.244
ACGAGAGA	-0.154
ATGATGGC	0.158
AGCTACAA	-0.198
ACATGATG	0.0128
AATTACGG	-0.15
ATAGAATC	-0.0714
AATGAAAT	-0.0315
AACTCGGT	-0.11

Sequence	PBM E-score
TCTCTGAA	-0.0732
GCTCTACC	-0.205
AAAAAGAA	-0.108
AGTATCCC	-0.0276
AACATTGT	0.118
AACCCATA	0.271
ACCCCTCG	-0.0469
GCTCCACC	-0.123
AGCTCAAC	-0.0814
AGTGACTG	0.288
ACCGTCGG	-0.0835
ATCGCCGG	0.188
GTTTTTAA	-0.0648
AGAGTCGA	0.157
CTGACGAA	-0.00684
ATGGGATC	-0.0379
CCCCACCA	0.0983
GACGCTAA	-0.272
GCACTGCA	0.108
ATCTAGTC	0.0194
AAAACTGT	-0.0987
AAACTTAC	-0.115
AGCTAAAC	-0.254
CGTCCTCC	-0.218
CGTTATGA	-0.054

Sequence	PBM E-score
CGGTCACG	-0.0515
GCCGGCTA	-0.0689
AGCAAACC	0.224
ACGGTCCC	-0.237
CTGGAACA	-0.00538
GCGCTGCA	-0.0157
GTCCCGCA	-0.139
CGCGCTGC	-0.0742
CCCGCTGC	0.0434
ACAGGGCA	-0.0833
GTCTTATA	-0.0174
GGTATTCA	0.00155
CACCTGTC	0.23
AGCACTCC	0.0396
CAGATAAG	-0.0755
ACGCGAAA	-0.0435
CTCGATCA	0.0844
AGTTGATA	0.122
AGTCACTC	0.428
